# Results from PubChem BioAssay (Tox21).
# Values joined by “and” are separate entries in the source; they are usually repeats but may differ in a detail not shown here. Equal values may be shown once. The shares of active, inactive and inconclusive entries below differ from those in the screen. For part of these data: A potency beside an inconclusive call is a rough fit, not a confirmed value. Active and inactive are the calls of the source. Unless noted, calls come from the whole dose curve; as a rule, active = well fitted curve in the direction sought with a large enough effect in the repeat runs; inconclusive = weak or mixed curves; inactive = no such curve, though single readings can be large; an effect the other way counts as inactive or inconclusive.
# Experiments:
# [1] = biological target: Estrogen receptor beta (Homo sapiens) (UniProt Q92731); assay: qHTS assay to identify small molecule antagonists of the estrogen receptor beta (ER-beta) signaling pathway (AID 1259378; active = well fitted inhibition curve with a large enough effect in the signal ratio in the repeat runs, not every such curve was filed as active; inconclusive = weak or mixed curves, or effect the other way; inactive = no such curve, though single readings can be large or run the other way; the % refers to the signal ratio; note: potency is the fitted concentration of half-maximal effect; for activity, negative = inhibition: % is set by controls: 0 for no effect and ±100 for the full control effect); conditions: ER-beta-UAS-bla HEK293T, beta-lactamase FRET ratio, 16 h; activity, negative = inhibition: at 92.4 µM (top of the series) unless noted
# In short: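 ER-beta-UAS-bla HEK293T cells in 2% charcoal-stripped FBS medium treated with compound plus 1nM final 17-beta-estradiol for 16 hr at 37C. Beta-lactamase reporter read by FRET substrate fluorescence after 2 hours at room temperature.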
# [2] = qHTS assay to identify small molecule antagonists of the estrogen receptor beta (ER-beta) signaling pathway - cell viability counter screen (AID 1259382); note: nearly all actives have a fitted effect of over 55% in size; note: potency is the fitted concentration of half-maximal effect
# In short: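 In this multiplexed counter screen, cells were seeded at 2,000 per well in medium with 2% charcoal-stripped FBS and incubated 6 hr before compound and 1nM final E2 were added. Sixteen hours later, ATP-based luminescence reported viability.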
# [3] = biological target: Progesterone receptor (Homo sapiens) (UniProt P06401); assay: qHTS assay to identify small molecule agonists of the progesterone receptor (PR) signaling pathway (AID 1346784; calls by dose curve; note: nearly all actives have a fitted effect of over 30% in size; note: potency is the fitted concentration of half-maximal effect; for activation: % is set by controls: 0 for no effect and ±100 for the full control effect); conditions: PR-UAS-bla HEK293T, beta-lactamase FRET ratio, 16 h; activation: at 92.4 µM (top of the series) unless noted
# In short: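 Cells (PR-UAS-bla HEK 293T, GripTite) were plated in assay medium containing 2% charcoal-stripped FBS and incubated 6 hr. Test compounds in DMSO were added for 16 hr at 37C. FRET substrate was then loaded for 2 hr at room temperature before fluorescence reading.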
# [4] = qHTS assay to identify small molecule agonists of the progesterone receptor (PR) signaling pathway - cell viability counter screen (AID 1346799; calls by dose curve; note: potency is the fitted concentration of half-maximal effect; nearly all actives have a fitted effect of over 45% in size)
# In short: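 Cells (PR-UAS-bla HEK293T) are plated at 3,000/well in 2% charcoal-stripped FBS medium, rested 6 hr, dosed and incubated 16 hr at 37C. CellTiter-Glo is then added and luminescence measured after 30 min at room temperature.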
# [5] = qHTS assay to identify small molecule agonists of the TGF-beta/Smad signaling pathway (AID 1346859; active = well fitted activation curve with a large enough effect in the signal ratio in the repeat runs, not every such curve was filed as active; inconclusive = weak or mixed curves; the % refers to the signal ratio; note: potency is the fitted concentration of half-maximal effect; for activation: % is set by controls: 0 for no effect and ±100 for the full control effect); conditions: SBE-bla HEK293T, TGF-beta/Smad beta-lactamase reporter, 5 h; activation: at 76.8 µM (top of the series) unless noted
# In short: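 Reporter line: HEK 293T with stably integrated SBE-controlled beta-lactamase. Compound exposure lasts 5 hr at 37 C and 5% CO2; substrate loading follows for 2 hr at room temperature, with emission read at 460 and 530 nm.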
# [6] = qHTS assay to identify small molecule antagonists of the TGF-beta/Smad signaling pathway - cell viability counter screen (AID 1346824); note: potency is the fitted concentration of half-maximal effect; nearly all actives have a fitted effect of over 50% in size
# In short: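 SBE-bla HEK 293T cells, incubated overnight, then compound plus 0.25 ng/mL TGF-beta1 (stock added) for 5 hr at 37 C. Viability was read in the same wells by CellTiter-Glo luminescence after 30 min at room temperature.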
# [7] = qHTS assay to identify small molecule antagonists of the TGF-beta/Smad signaling pathway (AID 1346924; active = well fitted inhibition curve with a large enough effect in the signal ratio in the repeat runs, not every such curve was filed as active; inconclusive = weak or mixed curves; the % refers to the signal ratio; note: potency is the fitted concentration of half-maximal effect); conditions: SBE-bla HEK293T, TGF-beta/Smad reporter, beta-lactamase ratio; activity, negative = inhibition: at 76.8 µM (top of the series) unless noted
# In short: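 SBE-bla HEK 293T cells were plated overnight, then received compound in DMSO plus TGF-beta1 (added as a 0.25 ng/mL solution) and were incubated 5 h at 37 C. Beta-lactamase reporter activity was read after 2 h at room temperature with LiveBLAzer B/G FRET substrate (ex 405, em 460/530 nm).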
# [8] = biological target: Progesterone receptor (Homo sapiens) (UniProt P06401); assay: qHTS assay to identify small molecule antagonists of the progesterone receptor (PR) signaling pathway (AID 1346795; active = well fitted inhibition curve with a large enough effect in the signal ratio in the repeat runs, not every such curve was filed as active; inconclusive = weak or mixed curves; the % refers to the signal ratio; note: potency is the fitted concentration of half-maximal effect; for activity change, negative = inhibition: % is set by controls: 0 for no effect and ±100 for the full control effect); conditions: PR-UAS-bla HEK293T, beta-lactamase FRET ratio, 16 h; activity change, negative = inhibition: at 92.4 µM (top of the series) unless noted
# In short: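 Antagonist mode: compounds tested against 1 nM (final) promegestone stimulation in HEK293T cells expressing PR-UAS-bla reporter, 16 hr at 37C, 5% CO2; beta-lactamase activity detected via B/G FRET substrate after 2 hr at room temperature.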
# [9] = qHTS assay to identify small molecule antagonists of the progesterone receptor (PR) signaling pathway - cell viability counter screen (AID 1346798); note: potency is the fitted concentration of half-maximal effect; nearly all actives have a fitted effect of over 50% in size
# In short: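 Counter screen for cytotoxicity: viability of PR-UAS-bla HEK293T cells was measured with CellTiter-Glo luminescence following 16 hr compound exposure in the presence of R5020.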
# [10] = biological target: Thyrotropin receptor (Homo sapiens) (UniProt P16473); assay: qHTS assay to identify small molecule antagonists of the thyroid stimulating hormone receptor (TSHR) signaling pathway (AID 1259385; calls by dose curve; note: nearly all actives have a fitted effect of over 20% in size; note: potency is the fitted concentration of half-maximal effect); conditions: TSHR-HEK293 cAMP HTRF, TSH-stimulated antagonist mode; activity change, negative = inhibition: at 92.4 µM (top of the series) unless noted
# In short: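 TSHR-HEK293 cells (800/well) plated 18 h, then compounds with Ro20-1724 and TSH at 1.5 ng/mL final, 30 min at room temperature. cAMP quantified by HTRF (cAMP-d2/anti-cAMP-cryptate, 1 h); 15 concentrations in triplicate.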
# [11] = qHTS assay to identify small molecule agonists of the estrogen receptor beta (ER-beta) signaling pathway - cell viability counter screen (AID 1259380); note: potency is the fitted concentration of half-maximal effect; nearly all actives have a fitted effect of over 30% in size
# In short: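 CellTiter-Glo read, 30 min RT, same wells as bla assay; cells ER-beta-UAS-bla HEK293T; 16 hr compound, 37C; medium 2% charcoal-stripped FBS.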
# [12] = qHTS assay to identify small molecule agonists of the TGF-beta/Smad signaling pathway - cell viability counter screen (AID 1346829); note: potency is the fitted concentration of half-maximal effect; nearly all actives have a fitted effect of over 45% in size
# In short: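 Luminescence from CellTiter-Glo, read after a 30 min room-temperature incubation, gives cell viability of SBE-bla HEK 293T cells treated 5 hr with compounds at 37 C.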
# [13] = qHTS assay to identify small molecule agonists of the estrogen receptor alpha (ER-alpha) signaling pathway in the presence of an antagonist - cell viability counter screen (AID 1259386);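 note: cells exposed to compounds for 22 h at 37 °C before the viability read; % is set by controls: 0 for no effect and ±100 for the full control effect; nearly all actives have a fitted effect of over 30% in size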
# In short: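 Viability counter screen using VM7Luc4E2 (full-length ER-alpha, four ERE-luciferase). The cells were treated with compounds alongside ICI-182,780 10.0nM for 22hr, and live-cell protease fluorescence was quantified with CellTiter-Fluor.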
# Tags give direction and shape of the fitted curve or compound fluorescence and quenching.
# UniProt Q92731, sequence (Q92731 whole entry, looked up): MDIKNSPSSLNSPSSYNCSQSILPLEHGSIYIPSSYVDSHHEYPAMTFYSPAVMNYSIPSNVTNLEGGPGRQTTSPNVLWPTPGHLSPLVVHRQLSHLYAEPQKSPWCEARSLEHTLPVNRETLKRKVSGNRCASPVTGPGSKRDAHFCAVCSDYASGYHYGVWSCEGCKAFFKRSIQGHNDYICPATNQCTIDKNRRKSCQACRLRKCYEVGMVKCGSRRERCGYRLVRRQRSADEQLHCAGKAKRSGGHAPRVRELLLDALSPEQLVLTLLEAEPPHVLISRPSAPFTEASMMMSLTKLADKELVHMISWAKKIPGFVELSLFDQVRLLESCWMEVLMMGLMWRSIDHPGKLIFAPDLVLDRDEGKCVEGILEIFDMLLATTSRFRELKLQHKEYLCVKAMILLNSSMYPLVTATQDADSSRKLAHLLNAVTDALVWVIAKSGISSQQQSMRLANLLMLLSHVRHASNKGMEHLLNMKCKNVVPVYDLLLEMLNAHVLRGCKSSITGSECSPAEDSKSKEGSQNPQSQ
# UniProt P16473, sequence (P16473 whole entry, looked up): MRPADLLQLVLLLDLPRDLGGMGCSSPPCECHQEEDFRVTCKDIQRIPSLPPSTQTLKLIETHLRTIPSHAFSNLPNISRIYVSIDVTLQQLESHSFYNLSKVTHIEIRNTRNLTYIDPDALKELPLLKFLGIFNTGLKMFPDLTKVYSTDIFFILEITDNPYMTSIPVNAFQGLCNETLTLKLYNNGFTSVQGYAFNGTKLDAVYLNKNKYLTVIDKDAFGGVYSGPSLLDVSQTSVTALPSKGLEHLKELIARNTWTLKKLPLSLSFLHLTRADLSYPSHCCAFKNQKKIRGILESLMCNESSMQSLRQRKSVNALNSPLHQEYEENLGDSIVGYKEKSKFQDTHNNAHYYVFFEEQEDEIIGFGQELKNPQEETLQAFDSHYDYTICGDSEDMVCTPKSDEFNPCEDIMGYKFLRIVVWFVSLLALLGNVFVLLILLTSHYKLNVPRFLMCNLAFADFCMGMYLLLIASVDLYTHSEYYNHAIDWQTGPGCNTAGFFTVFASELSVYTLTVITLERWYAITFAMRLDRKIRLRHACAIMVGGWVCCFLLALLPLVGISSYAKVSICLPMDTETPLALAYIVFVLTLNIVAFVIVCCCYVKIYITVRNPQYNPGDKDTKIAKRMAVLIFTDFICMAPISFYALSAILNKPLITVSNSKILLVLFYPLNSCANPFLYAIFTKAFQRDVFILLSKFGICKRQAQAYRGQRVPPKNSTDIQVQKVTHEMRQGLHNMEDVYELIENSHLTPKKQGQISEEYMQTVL
# UniProt P06401, sequence (P06401 whole entry, looked up): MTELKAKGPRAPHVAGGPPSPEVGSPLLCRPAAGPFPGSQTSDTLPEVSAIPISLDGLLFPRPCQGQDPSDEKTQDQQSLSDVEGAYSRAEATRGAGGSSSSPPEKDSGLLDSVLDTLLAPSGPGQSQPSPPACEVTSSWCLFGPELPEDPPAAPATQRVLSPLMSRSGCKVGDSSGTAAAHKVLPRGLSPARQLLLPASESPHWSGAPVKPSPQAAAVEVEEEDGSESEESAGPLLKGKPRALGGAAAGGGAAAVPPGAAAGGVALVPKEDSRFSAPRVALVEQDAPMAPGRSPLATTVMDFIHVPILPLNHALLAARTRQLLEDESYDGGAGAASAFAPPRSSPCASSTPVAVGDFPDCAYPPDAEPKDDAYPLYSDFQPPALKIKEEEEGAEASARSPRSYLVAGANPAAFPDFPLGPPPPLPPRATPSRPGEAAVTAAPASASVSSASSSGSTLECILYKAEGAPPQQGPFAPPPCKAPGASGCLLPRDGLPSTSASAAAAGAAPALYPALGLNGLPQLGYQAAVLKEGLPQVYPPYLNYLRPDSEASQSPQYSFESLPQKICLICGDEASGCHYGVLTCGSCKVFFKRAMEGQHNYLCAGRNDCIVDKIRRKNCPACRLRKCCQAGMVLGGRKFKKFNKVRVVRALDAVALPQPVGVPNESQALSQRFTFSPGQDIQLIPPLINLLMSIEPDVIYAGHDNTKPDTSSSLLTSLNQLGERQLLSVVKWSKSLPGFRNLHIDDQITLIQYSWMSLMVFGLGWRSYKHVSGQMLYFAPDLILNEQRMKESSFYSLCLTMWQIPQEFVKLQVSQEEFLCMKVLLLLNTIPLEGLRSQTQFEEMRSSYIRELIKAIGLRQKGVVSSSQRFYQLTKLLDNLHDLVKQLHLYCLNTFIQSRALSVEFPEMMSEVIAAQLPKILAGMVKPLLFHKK
smiles,measurement,setting,value
O=C=Nc1cccc(C(F)(F)F)c1,"activity, negative = inhibition",[1],inconclusive: -30.5%
same,Potency,[2],inactive
same,Potency,[3],"inconclusive: 76.4 µM [falling, partial curve, poor fit]"
same,Potency,[4],"inconclusive: 24.2 µM [cytotoxic, partial curve]"
same,Potency,[5],inactive
O=C(Cl)c1cccc(C(=O)Cl)c1,Potency,[1],inactive
same,Potency,[2],inactive
CCCCCOC(=O)CCCC,Potency,[1],inactive
same,Potency,[2],inactive
same,Potency,[6],"inconclusive: 61.6 µM [cytotoxic, partial curve, poor fit]"
same,"activity, negative = inhibition",[7],inconclusive: -32.4%
NC1[C@H]2CN(c3nc4c(cc3F)c(=O)c(C(=O)O)cn4-c3ccc(F)cc3F)C[C@@H]12 (some centres not stated),Potency,[1],"inconclusive: 18.8 µM [activator, partial curve]"
same,Potency,[2],inactive
same,activation,[3],inconclusive: 9.41% [at 42.5 µM]
same,Potency,[8],"inconclusive: 2.98 µM [rising, full curve]"
same,Potency,[9],"inconclusive: 9.44 µM [rising, single point]"
O=C(CCCN1CC=C(n2c(=O)[nH]c3ccccc32)CC1)c1ccc(F)cc1,Potency,[1],inactive
same,Potency,[2],"inconclusive: 26.6 µM [cytotoxic, single point]"
same,Potency,[8],inactive
same,Potency,[5],"inconclusive: 6.01 µM [rising, partial curve]"
CCN(CC)CCCN(c1ccccc1)C1Cc2ccccc2C1,Potency,[1],"inconclusive: 26.6 µM [inhibitor, partial curve]"
same,Potency,[2],"inconclusive: 13.3 µM [cytotoxic, partial curve]"
same,Potency,[9],"inconclusive: 11.9 µM [cytotoxic, partial curve]"
same,Potency,[4],"inconclusive: 4.22 µM [cytotoxic, partial curve, poor fit]"
COc1cc(C(=O)NS(=O)(=O)c2ccccc2C)ccc1Cc1cn(C)c2ccc(NC(=O)OC3CCCC3)cc12,Potency,[1],active: 13.3 µM
same,Potency,[2],"inconclusive: 13.3 µM [cytotoxic, partial curve]"
same,Potency,[10],inactive
same,"activity change, negative = inhibition",[8],inconclusive: -22.4% [at 42.5 µM]
CCCCC/C=C/C=C/C=O,Potency,[1],"inconclusive: 54.5 µM [rising, partial curve]"
same,Potency,[11],"inconclusive: 76.3 µM [cytotoxic, single point] and inconclusive: 17.2 µM [cytotoxic, full curve]"
same,Potency,[8],inactive
OCCOCCOCCOCCOCCO,"activity, negative = inhibition",[1],inconclusive: 20.2%
same,Potency,[10],inactive
same,"activity, negative = inhibition",[7],inconclusive: -6.89%
CCSCC,Potency,[1],inconclusive: 72.5 µM [activator]
same,activation,[3],inconclusive: -13.5%
same,"activity change, negative = inhibition",[8],inconclusive: -34.1%
same,Potency,[9],"inconclusive: 81.4 µM [cytotoxic, single point]"
same,Potency,[4],"inconclusive: 72.5 µM [cytotoxic, single point]"
same,"activity, negative = inhibition",[7],inconclusive: 1.76%
CCN(CCC#N)c1ccccc1,Potency,[1],inactive
same,"activity change, negative = inhibition",[8],inconclusive: -29.2%
same,Potency,[9],"inconclusive: 1.37 µM [cytotoxic, single point]"
c1ccc(C[n+]2cccc3ccccc32)cc1,"activity, negative = inhibition",[1],inconclusive: -31.8%
same,Potency,[10],"inconclusive: 68.6 µM [falling, partial curve, poor fit]"
same,Potency,[12],"inconclusive: 54.9 µM [cytotoxic, partial curve, poor fit]"
same,Potency,[5],inactive
CN1CC[C@H](c2c(O)cc(O)c3c(=O)cc(-c4ccccc4Cl)oc23)[C@H](O)C1,Potency,[1],"inconclusive: 1.68 µM [rising, partial curve]"
same,activation,[3],inconclusive: -14.2% [at 42.5 µM]
same,Potency,[8],"inconclusive: 0.0841 µM [rising, full curve]"
same,Potency,[4],"inconclusive: 0.668 µM [rising, full curve]"
same,Potency,[5],"inconclusive: 0.674 µM [rising, full curve]"
same,"activity, negative = inhibition",[7],inconclusive: -2.87% [at 35.3 µM]
c1ccc(CCCc2ccncc2)cc1,Potency,[1],"inconclusive: 68.6 µM [inhibitor, single point]"
same,activation,[3],inconclusive: -9.52%
same,Potency,[8],"inconclusive: 38.6 µM [rising, partial curve]"
same,Potency,[4],"inconclusive: 27.3 µM [rising, single point]"
FC(F)(F)c1cccc(Cl)c1,Potency,[1],inactive
same,Potency,[9],"inconclusive: 67.3 µM [cytotoxic, single point]"
CO[C@]1(NC(=O)CSC(F)F)C(=O)N2C(C(=O)O)=C(CSc3nnnn3CCO)CO[C@H]21,Potency,[1],inactive
same,Potency,[8],"inconclusive: 1.19 µM [falling, single point]"
CN1CCN(c2cc3c(cc2F)c(=O)c(C(=O)O)cn3-c2ccc(F)cc2)CC1,Potency,[1],"inconclusive: 5.96 µM [activator, partial curve]"
same,Potency,[3],active: 29.8 µM
same,Potency,[8],inconclusive: 10.6 µM
same,Potency,[5],"inconclusive: 10.7 µM [rising, partial curve]"
same,Potency,[7],"inconclusive: 19 µM [fluorescent, partial curve]"
Clc1ccnc(Cl)n1,"activity, negative = inhibition",[1],inconclusive: 29.8%
same,"activity change, negative = inhibition",[8],inconclusive: -34.9%
same,Potency,[9],"inconclusive: 69.6 µM [cytotoxic, single point]"
CCN[C@H]1CN(CCCOC)S(=O)(=O)c2sc(S(N)(=O)=O)cc21,Potency,[1],inactive
same,Potency,[13],inactive
same,Potency,[8],inactive
